Results on 27 variants are retold here after the RNAGym collection of RNA variant scans (doi:10.1101/gad.245936.114).

This sample is rich in variants without activity.

First the molecules themselves.
B1: tRNA (parent)
chain: CUCUCGGUAGCCAAGUUGGUUUAAGGCGCAAGACUUUAAUUUAUCACUACGAAAUCUUGAGAUCGGGCGUUCGACUCGCCCCCGGGAGAUUUUUUCCUCGAGCAA

The data set covers variants of B1. Briefly: nonsense suppression (GFP-seq) (ratio to wild type); higher = more function; SUP4oc tRNA, yeast GFP reporter sort-seq. An outline of the steps:
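Sorted GFP/RFP bins of yeast were each Illumina-sequenced with a phred ≥30 cutoff; the cells held a genome-integrated ochre-suppressor tRNA variant from a library with ~3% random mutations, a galactose-driven GFP ochre reporter, and RFP. Culture was in raffinose/galactose medium containing 80 mg/L adenine. Nonsense suppression, termed GFPSEQ, is the median GFP/RFP of the bins weighted by each variant's estimated cell share per bin, relative to the unmutated parent tRNA, for variants reaching ≥100 reads and ≥30 cells.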
Consider CCCUCGGUAGCCAAGUUGGUUUAAGGCUCAAGACUUUAAUUUAUCACUACGAAAUCUUGAGAUCGAGCGUUCGACUCGCGCCCGAGAGAUUUUUUCCUCGAGCAA [U2C G28U G66A C80G G85A], for which the nonsense suppression was at most 0.026.

Consider CUCUCGGUAGCCAAGUUGUUUUAAGGUGCAAGACUUUAAUUUAUCACUACGAAAUCUUGAGAUCGGGCGUUCGACUCGCCCCCGGGAGAUUUUUUCCUCGAGCAA [G19U C27U], for which the nonsense suppression is at most 0.026.

Consider CACUCGGUAGCCAAGUUGGUUUAAGGCGCAAGGCUUUAAUUUAUCACUACGAAAUCUUGAGAUCGGGCGUUCGACUCGCAGCCGGGAGAUUUUUUCCUCGAGCAA [U2A A33G C80A C81G], for which the nonsense suppression is at most 0.026.

For the variant CUCUCGGUAGCCAAGUUGGUUUAAGGCGCAAGACUUUAAUUUAUCACUACGAAGUCUUGAGAUCGGGCGUUCGACUCGGCCCCGGGAGGUUUUUUCCUCGAGCAA [A54G C79G A89G], the nonsense suppression was at most 0.026.

Take CCCUCGGUAGCCAAGUUGGUUUAAGGCGCAAGACUUUAAUUUAUCACUACGAAAUGUUGAGAUCAGGCGUUCGACUCGCCCGCGGGAGAUUUUUUCCUCGAGCAA [U2C C56G G65A C82G]: the nonsense suppression is at most 0.026.

As to UUCUCGGUAGCCAAGUUGGUUUAAGGCGCCAGACUUUAAUUUAUCACUACGAAAUCCUGAAAUCGGGCGUUCGACUCGCCCCCCGGACAUUUUUUCCUCGAGCAA [C1U A30C U57C G61A G84C G88C], the nonsense suppression is at most 0.026.

Take CUCUCGGUAGCGAAGUUGGUUUAAGGCGCAAGACUUUAAUUUAUCACUACGAAAUCUUGAGAUCGGCCGUUCGAUUCGCCCCCGGGAGAUUUUUUCCUCGAGCAA [C12G G67C C75U]: the nonsense suppression is at most 0.026.

For CUCUCGGUAGCCGAGUUGGUUUAAGGCGCAAGACUUUAAUUUAUCACUACGAAAUCUUCUGAUCGGGCGUACGACUCGCCCCCGGGAUAUUUUUUCCUCGAGCAA [A13G G59C A60U U71A G88U], the nonsense suppression is at most 0.026.

Regarding CUCUCGAUAGCCAAGUUGGUUUAAGGCGCAAGACUUUAAUUUAUCACUACGAAAUCUUGAGAUCGGGCGUUCGACUCGCCCCCGGGACAUUUUUUCCUCGAGCAA [G7A G88C], the nonsense suppression was at most 0.026.

For CUCUCGGUAGCCAAGUCGGUUUAAGGCUCCAGACUUUAAUUUAUCACUACGAAAUCUUGAGAUCGGGCGUUCGACUCGCCCCCGGGAGAUUUUUUCCUCGAGCAA [U17C G28U A30C], the nonsense suppression was at most 0.026.

CUCUCGGUCGCCAAGUUGGUUUUAGGCGCAAGACUUUAAUUUAUCACUACGAAAUCGUGAGAUCGGGCGUUCGACUCGCCCCCGGGAGAUUUUUUCCUCGAGCAA [A9C A23U U57G]: the nonsense suppression was at most 0.026.

Consider CUCUCGGUAGCCAAGCUGGUUUAAGGCGCGAGAUUUUAAUUUAUCACUACGAAAUCUUGAGAUCGGGCGUUCGACUCGCCCCCGGGAGAUUUUUUCCUCGAGCAA [U16C A30G C34U], for which the nonsense suppression was at most 0.026.

As for CUCUCGGUAGCCAAGUUGGUUUAAGGCGCAAGACUUUAAUUUAUCACUACGAAAUCUUGAGAUCGCGCGUUCGACUCGCCCCCGGGAGCUUUUUUCCUCGAGCAA [G66C A89C], the nonsense suppression was at most 0.026.

In the case of CUCUCGGUGGCCAAGUUGGUUUAAGGCGCAAGACUUUAAUUUAUCACUACGAAAUCUUGAGACCGGGCGUUCGACUCGCCCCCGGGAGAUUUUUUCCUCGAGCAA [A9G U63C], the nonsense suppression amounted to 0.772.

For the variant GUCUCGGUAGCCAAGUUGGUUUAAGGCGCAAGACUUUAAUUUAUCACUACGAAAUCUUGAGAUCGCGCGUACGACUCUCCCCCGGGAGAUUUUUUCCUCGAGCAA [C1G G66C U71A G78U], the nonsense suppression is at most 0.026.

For the variant CUCUCGGUAGUCAAGUUGGUUUAAGGCGCAAGACUUUAAUUUAUCACUACGAAAUCUUGACAUCCGGCGUUCGACCCGCCCCAGGGAGAUUUUUUCCUCGAGCAA [C11U G61C G65C U76C C83A], the nonsense suppression is at most 0.026.

As to CUCUCGGUAGCGAAGAUUGUUUAAGGCGCAAGACUUUAAUUUAUCACUACGAAAUCUUGAGAUCGGGCGUUCGACUCGCGCUCGGGAGAUUUUUUCCUCGAGCAA [C12G U16A G18U C80G C82U], the nonsense suppression was at most 0.026.

For AUCUCGGUAGCCAAGUCGGAUUAAGGCGCAAGACUUUAAUUUAUCACUACGAAAUCUUAAGAUCGGGCCUUCGACUCGGCCCCGGGAGAUUUUUUCCUCGAGCAA [C1A U17C U20A G59A G69C C79G], the nonsense suppression was at most 0.026.

Turning to CUCUCGAUAGCCGAGUUGGUUUAAGGCGCAAGACUUUAAUUUAUCACUACGAAAUCUUGAGACCGGGCGCUCGACUCGCCACUGGGAGAUUUUUUCCUCGAGCAA [G7A A13G U63C U70C C81A C83U], the nonsense suppression is at most 0.026.

Consider CUCUCGGUAGCCAAGGUGGUUUAAGGCGCAAGACUUUAAUUUAUCACUACGAAAUCUUGAGAUCGGGCGUUCGACUCGACCCCUGGAGAUUUUUUCCUCGAGCAA [U16G C79A G84U], for which the nonsense suppression was at most 0.026.

As for CUCUCGGUAGCCAAGUUGGUUUAAGGUGCAAGUCUUUAAUUUAUCACUACGAAAUCUUGAGAUCGGGCGUUCGACUCGCCCCCGGGAGAUUUUUUCCUCGAGCAA [C27U A33U], the nonsense suppression was at most 0.026.

Consider GUCUCGGUAGCCAAGUUGGUUUAAGGCGCAAGACUUUAAUUUAUCACUACGAAAUCUUGAGAUCGGGGGUUCGACUCGCCCCCGGGAGAUUUUUUCCUCGAGCAA [C1G C68G], for which the nonsense suppression is at most 0.026.

With CUCUCGGAAGCCAAGUUGGUGUAAGGCGCAAGACUUUAAUUUAUCACUACGAAAUCUUGAUAUCGGGCGUUCGACUCGCCCCCGGGAGAUUUUUUCCUCGAGCAA [U8A U21G G61U], the nonsense suppression was at most 0.026.

Consider CUCUCGGUGGCCAAGUUGGUUUAAGGCUCAAGCGUUUAAUUUAUCACUACGAAAUCUUGAGAUCGGGCGUUCGACUCGCCCCCGGGAGAUUUUUUCCUCGAGCAA [A9G G28U A33C C34G], for which the nonsense suppression is at most 0.026.

For the variant CUCUCGGUAGCCACGUUGGUUUAAGGCGCAAGACUUUAAUUUAUCACUACGAAAUCUUGCGAUCGGACGUUCGACUCGCCCCCGGGAGAUUUUUUCCUCGAGCAA [A14C A60C G67A], the nonsense suppression is at most 0.026.

Turning to CUCUCGGUAGCCAAGUUGGUUUAAACCGCAAGACUUUAAUUUAUCACUACGAAAUCUUGAGAUCGGGCGUUCGACUCGCCCCCGGGAGAUUUUUUCCUCGAGCAA [G25A G26C], the nonsense suppression was at most 0.026.

As for CUCUCGGUAGCCAAGUUGGUUUAAGGCGCAAGACUUUAAUUUAUCACUACGAAAUCUUUAGAUCGGGCGUUCGCCUCGCCCUCGGGAGAUUUUUUCCUCGAGCAA [G59U A74C C82U], the nonsense suppression is at most 0.026.
